From the supplement of paper PMC8748497 come the findings set out here.

This is one part of the list.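 How the source made its calls: active = GRHL reporter fold change of at least 2 over DMSO at 10 µM; inactive = below 2-fold.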 Most values come without repeats; read them as rough.
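Further: stable HEK293 line carrying repeated GRHL consensus sites upstream of a minimal promoter driving luciferase, luminescence read 24 h post-treatment, normalized to 0.5% DMSO vehicle wells.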

The test system of the experiment is HEK293 GRHL-luciferase reporter. Briefly: GRHL luciferase reporter activity, fold change over DMSO control; higher = stronger GRHL reporter activation. Conditions: 10 µM; 24 h. For orientation: In a reporter assay the amount or activity of a reporter protein is the signal.
As for `[O-][n+]1cccc(CO)c1`, the “GRHL luciferase reporter activity” value is inactive: 0.915. The same measure for `C[C@]12CCC(=O)C=C1CC[C@@H]1[C@@H]2CC[C@@]2(C)[C@H]1CC[C@]2(O)C(=O)CO`: inactive: 1.22; for `C=CCCCCCCCCC(=O)[O-].C=CCCCCCCCCC(=O)[O-].[Zn+2]`: inactive: 1.06; for `COc1cc(OC)c2c(c1Cl)O[C@@]1(C(=O)CC(=O)C[C@H]1C)C2=O`: inactive: 1.06. The same measure for `C[C@@H]1CN(c2c(F)c(F)c3c(=O)c(C(=O)O)cn(C4CC4)c3c2F)C[C@H](C)N1`: inactive: 1.04; for `Nc1ccc(S(=O)(=O)c2ccc(N)cc2)cc1`: inactive: 1.16; for `O=C(CCCCCCC(=O)Nc1ccccc1)NO`: active: 56.2. The same measure for `CN1C(C(=O)Nc2ccccn2)=C(O)c2ccccc2S1(=O)=O`: inactive: 1.08. In the case of `O=c1[nH]c(=O)c2ccccc2o1`, the “GRHL luciferase reporter activity” value was inactive: 1.04. The same measure for `Cc1c(OCC(F)(F)F)ccnc1C[S+]([O-])c1nc2ccccc2[nH]1` (configuration not stated): active: 4.2.

As for `COc1ccc(-c2coc3c(OC)c(OC)cc(O)c3c2=O)cc1`, the “GRHL luciferase reporter activity” value was inactive: 1.68. The same measure for `CC(C)=CCC/C(C)=C/COc1ccc2ccc(=O)oc2c1`: inactive: 1.42. On to `CCC1NC(=O)c2cc(S(N)(=O)=O)c(Cl)cc2N1` (configuration not stated), for which the “GRHL luciferase reporter activity” value was inactive: 0.776.

On to `O=S(=O)(O)NC1CCCCC1`, for which the “GRHL luciferase reporter activity” value was inactive: 0.931.

`COc1ccc2c(c1)c(CC(=O)O)c(C)n2C(=O)c1ccc(Cl)cc1`: the “GRHL luciferase reporter activity” value was inactive: 1.17. In the case of `Nc1ncnc2c1ncn2[C@@H]1O[C@H](COP(=O)(O)O)[C@@H](O)[C@H]1O` it was inactive: 0.945. In the case of `NS(=O)(=O)c1cc2c(cc1Cl)N=C(CSCc1ccccc1)NS2(=O)=O` it was inactive: 1.04.
